# According to the supplement of paper PMC8728848:
# The list shows a part of the results.
# Assays:
# Experiment in all cases: glycan array binding signal (z-score within array); higher = stronger binding
# Details in all cases: glycan notation: IUPAC condensed, linker removed
# [1] = molecular target: Neu5Ac(a2-3)Gal(b1-4)[Fuc(a1-3)]GlcNAc(b1-3)Gal(b1-4)[Fuc(a1-3)]GlcNAc(b1-3)Gal(b1-4)[Fuc(a1-3)]GlcNAc
# Summary of the method: (§1)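 Glycan array data were curated from 3228 arrays in the Consortium for Functional Glycomics database and kept only where the protein sequence was available. Glycan names were converted to IUPAC-condensed notation, and columns mapping to the same glycan were averaged. The binding signal is a within-array Z-score, averaged across arrays of the same protein sequence at different concentrations or buffers and across linkers. Negative Z-scores can be read as non-binding.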
# [2] = molecular target: Neu5Ac(a2-3)Gal(b1-4)[Fuc(a1-3)]GlcNAc(b1-3)GalNAc
# Summary of the method: as §1
# [3] = molecular target: Neu5Ac(a2-3)Gal(b1-4)[Fuc(a1-3)]GlcNAc(b1-6)[Gal(b1-3)]GalNAc
# Summary of the method: as §1
# [4] = molecular target: Neu5Ac(a2-3)Gal(b1-4)[Fuc(a1-3)]GlcNAc(b1-6)[Neu5Ac(a2-3)Gal(b1-3)]GalNAc
# Summary of the method: as §1
# [5] = molecular target: Neu5Ac(a2-3)Gal(b1-4)[Fuc(a1-3)]GlcNAc6S
# Summary of the method: as §1
# [6] = molecular target: Neu5Ac(a2-3)Gal6S(b1-4)GlcNAc
# Summary of the method: as §1
# [7] = molecular target: Neu5Ac(a2-3)Gal6S(b1-4)[Fuc(a1-3)]GlcNAc
# Summary of the method: as §1
# Neu5Ac(a2-3)GalNAc = molecular target: Neu5Ac(a2-3)GalNAc
# Summary of the method: as §1
# [8] = molecular target: Neu5Ac(a2-3)GalNAc(b1-4)GlcNAc
# Summary of the method: as §1
# [9] = molecular target: Neu5Ac(a2-3)[GalNAc(b1-4)]Gal(b1-4)Glc
# Summary of the method: as §1
# [10] = molecular target: Neu5Ac(a2-3)[GalNAc(b1-4)]Gal(b1-4)GlcNAc
# Summary of the method: as §1
# [11] = molecular target: Neu5Ac(a2-3)[GalNAc(b1-4)]Gal(b1-4)GlcNAc(b1-3)GalNAc
# Summary of the method: as §1
# [12] = molecular target: Neu5Ac(a2-3)[Neu5Ac(a2-6)]GalNAc
# Summary of the method: as §1
# Neu5Ac(a2-6)Gal = molecular target: Neu5Ac(a2-6)Gal
# Summary of the method: as §1
# [13] = molecular target: Neu5Ac(a2-6)Gal(b1-3)GlcNAc(b1-3)[Gal(b1-4)GlcNAc(b1-6)]Gal(b1-4)Glc
# Summary of the method: as §1
# Neu5Ac(a2-6)Gal(b1-4)Glc = molecular target: Neu5Ac(a2-6)Gal(b1-4)Glc
# Summary of the method: as §1
# [14] = molecular target: Neu5Ac(a2-6)Gal(b1-4)GlcNAc
# Summary of the method: as §1
# [15] = molecular target: Neu5Ac(a2-6)Gal(b1-4)GlcNAc(b1-2)Man
# Summary of the method: as §1
# [16] = molecular target: Neu5Ac(a2-6)Gal(b1-4)GlcNAc(b1-2)Man(a1-3)Man(b1-4)GlcNAc(b1-4)GlcNAc
# Summary of the method: as §1
# [17] = molecular target: Neu5Ac(a2-6)Gal(b1-4)GlcNAc(b1-2)Man(a1-3)[Gal(b1-4)GlcNAc(b1-2)Man(a1-6)]Man(b1-4)GlcNAc(b1-4)GlcNAc
# Summary of the method: as §1
# [18] = molecular target: Neu5Ac(a2-6)Gal(b1-4)GlcNAc(b1-2)Man(a1-3)[GlcNAc(b1-2)Man(a1-6)]Man(b1-4)GlcNAc(b1-4)GlcNAc
# Summary of the method: as §1
# [19] = molecular target: Neu5Ac(a2-6)Gal(b1-4)GlcNAc(b1-2)Man(a1-3)[GlcNAc(b1-2)Man(b1-4)GlcNAc(b1-2)Man(a1-6)]Man(b1-4)GlcNAc(b1-4)GlcNAc
# Summary of the method: as §1
# [20] = molecular target: Neu5Ac(a2-6)Gal(b1-4)GlcNAc(b1-2)Man(a1-3)[GlcNAc(b1-4)][Neu5Ac(a2-6)Gal(b1-4)GlcNAc(b1-2)Man(a1-6)]Man(b1-4)GlcNAc(b1-4)GlcNAc
# Summary of the method: as §1
# [21] = molecular target: Neu5Ac(a2-6)Gal(b1-4)GlcNAc(b1-2)Man(a1-3)[Man(a1-6)]Man(b1-4)GlcNAc(b1-4)GlcNAc
# Summary of the method: as §1
# [22] = molecular target: Neu5Ac(a2-6)Gal(b1-4)GlcNAc(b1-2)Man(a1-3)[Neu5Ac(a2-3)Gal(b1-4)GlcNAc(b1-2)Man(a1-6)]Man(b1-4)GlcNAc(b1-4)GlcNAc
# Summary of the method: as §1
# [23] = molecular target: Neu5Ac(a2-6)Gal(b1-4)GlcNAc(b1-2)Man(a1-3)[Neu5Ac(a2-6)Gal(b1-4)GlcNAc(b1-2)Man(a1-6)]Man(b1-4)GlcNAc(b1-4)GlcNAc
# Summary of the method: as §1
# [24] = molecular target: Neu5Ac(a2-6)Gal(b1-4)GlcNAc(b1-2)Man(a1-3)[Neu5Ac(a2-6)Gal(b1-4)GlcNAc(b1-2)Man(a1-6)]Man(b1-4)GlcNAc(b1-4)[Fuc(a1-6)]GlcNAc
# Summary of the method: as §1
# [25] = molecular target: Neu5Ac(a2-6)Gal(b1-4)GlcNAc(b1-2)Man(a1-6)Man(b1-4)GlcNAc(b1-4)GlcNAc
# Summary of the method: as §1
# [26] = molecular target: Neu5Ac(a2-6)Gal(b1-4)GlcNAc(b1-2)Man(a1-6)[Gal(b1-4)GlcNAc(b1-2)Man(a1-3)]Man(b1-4)GlcNAc(b1-4)GlcNAc
# Summary of the method: as §1
# [27] = molecular target: Neu5Ac(a2-6)Gal(b1-4)GlcNAc(b1-2)Man(a1-6)[GlcNAc(b1-2)Man(a1-3)]Man(b1-4)GlcNAc(b1-4)GlcNAc
# Summary of the method: as §1
# [28] = molecular target: Neu5Ac(a2-6)Gal(b1-4)GlcNAc(b1-2)Man(a1-6)[Man(a1-3)]Man(b1-4)GlcNAc(b1-4)GlcNAc
# Summary of the method: as §1
# [29] = molecular target: Neu5Ac(a2-6)Gal(b1-4)GlcNAc(b1-2)[Neu5Ac(a2-6)Gal(b1-4)GlcNAc(b1-4)]Man(a1-3)[GlcNAc(b1-4)][Neu5Ac(a2-6)Gal(b1-4)GlcNAc(b1-2)[Neu5Ac(a2-6)Gal(b1-4)GlcNAc(b1-6)]Man(a1-6)]Man(b1-4)GlcNAc(b1-4)GlcNAc
# Summary of the method: as §1
# [30] = molecular target: Neu5Ac(a2-6)Gal(b1-4)GlcNAc(b1-2)[Neu5Ac(a2-6)Gal(b1-4)GlcNAc(b1-4)]Man(a1-3)[GlcNAc(b1-4)][Neu5Ac(a2-6)Gal(b1-4)GlcNAc(b1-4)Man(a1-6)]Man(b1-4)GlcNAc(b1-4)GlcNAc
# Summary of the method: as §1
# [31] = molecular target: Neu5Ac(a2-6)Gal(b1-4)GlcNAc(b1-2)[Neu5Ac(a2-6)Gal(b1-4)GlcNAc(b1-6)]Man(a1-6)[Neu5Ac(a2-6)Gal(b1-4)GlcNAc(b1-2)Man(a1-3)][GlcNAc(b1-4)]Man(b1-4)GlcNAc(b1-4)GlcNAc
# Summary of the method: as §1
# [32] = molecular target: Neu5Ac(a2-6)Gal(b1-4)GlcNAc(b1-3)Gal(b1-3)GlcNAc
# Summary of the method: as §1
# [33] = molecular target: Neu5Ac(a2-6)Gal(b1-4)GlcNAc(b1-3)Gal(b1-4)GlcNAc
# Summary of the method: as §1
# [34] = molecular target: Neu5Ac(a2-6)Gal(b1-4)GlcNAc(b1-3)Gal(b1-4)GlcNAc(b1-2)Man(a1-3)[Neu5Ac(a2-6)Gal(b1-4)GlcNAc(b1-3)Gal(b1-4)GlcNAc(b1-2)Man(a1-6)]GalNAc
# Summary of the method: as §1
# [35] = molecular target: Neu5Ac(a2-6)Gal(b1-4)GlcNAc(b1-3)Gal(b1-4)GlcNAc(b1-3)Gal(b1-4)GlcNAc
# Summary of the method: as §1
# [36] = molecular target: Neu5Ac(a2-6)Gal(b1-4)GlcNAc(b1-3)Gal(b1-4)GlcNAc(b1-3)Gal(b1-4)GlcNAc(b1-2)Man(a1-3)[Neu5Ac(a2-6)Gal(b1-4)GlcNAc(b1-3)Gal(b1-4)GlcNAc(b1-3)Gal(b1-4)GlcNAc(b1-2)Man(a1-6)]GalNAc
# Summary of the method: as §1
# [37] = molecular target: Neu5Ac(a2-6)Gal(b1-4)GlcNAc(b1-3)Gal(b1-4)GlcNAc(b1-3)GalNAc
# Summary of the method: as §1
# [38] = molecular target: Neu5Ac(a2-6)Gal(b1-4)GlcNAc(b1-3)Gal(b1-4)GlcNAc(b1-3)[Neu5Ac(a2-6)Gal(b1-4)GlcNAc(b1-3)Gal(b1-4)GlcNAc(b1-6)]GalNAc
# Summary of the method: as §1
# [39] = molecular target: Neu5Ac(a2-6)Gal(b1-4)GlcNAc(b1-3)Gal(b1-4)GlcNAc(b1-6)[Gal(b1-3)]GalNAc
# Summary of the method: as §1
binder,measurement,setting,value
PpFlo1 (Pichia pastoris) (protein) MGSSHHHHHHSSGLVPRGSHMQESGDGDISDSAYACDIDATRYDGFNATIYEFQPGDGRLTRDPVFMSTGYLNRTQLHSITGVTDPGFSIYTPGVPTTTLYGIPNVNWENLLLELKGYFRAEVSGDYGLSLRNIDDSAILFFGKETAFQCCNENSISNEASTDYSLFTIFRQEGDETTNLDSFTYTQYLEAGKYYPVRTFFVNIERHAVFNFTMTLPDGTELTDFHNYIYQFGALDEEQCQA,glycan array binding signal (z-score),[1],-0.141
same,glycan array binding signal (z-score),[2],0.976
same,glycan array binding signal (z-score),[3],1.03
same,glycan array binding signal (z-score),[4],-0.265
same,glycan array binding signal (z-score),[5],0.267
same,glycan array binding signal (z-score),[6],-0.584
same,glycan array binding signal (z-score),[7],0.016
same,glycan array binding signal (z-score),Neu5Ac(a2-3)GalNAc,-0.32
same,glycan array binding signal (z-score),[8],-0.165
same,glycan array binding signal (z-score),[9],-0.314
same,glycan array binding signal (z-score),[10],-0.179
same,glycan array binding signal (z-score),[11],0.445
same,glycan array binding signal (z-score),[12],0.292
same,glycan array binding signal (z-score),Neu5Ac(a2-6)Gal,-0.093
same,glycan array binding signal (z-score),[13],-0.237
same,glycan array binding signal (z-score),Neu5Ac(a2-6)Gal(b1-4)Glc,0.204
same,glycan array binding signal (z-score),[14],-0.057
same,glycan array binding signal (z-score),[15],-0.749
same,glycan array binding signal (z-score),[16],-0.078
same,glycan array binding signal (z-score),[17],0.28
same,glycan array binding signal (z-score),[18],-0.446
same,glycan array binding signal (z-score),[19],1.45
same,glycan array binding signal (z-score),[20],-0.336
same,glycan array binding signal (z-score),[21],-0.182
same,glycan array binding signal (z-score),[22],-0.156
same,glycan array binding signal (z-score),[23],0.511
same,glycan array binding signal (z-score),[24],0.148
same,glycan array binding signal (z-score),[25],0.134
same,glycan array binding signal (z-score),[26],-0.159
same,glycan array binding signal (z-score),[27],0.632
same,glycan array binding signal (z-score),[28],-0.445
same,glycan array binding signal (z-score),[29],-0.333
same,glycan array binding signal (z-score),[30],-0.564
same,glycan array binding signal (z-score),[31],0.318
same,glycan array binding signal (z-score),[32],-0.559
same,glycan array binding signal (z-score),[33],1.01
same,glycan array binding signal (z-score),[34],0.354
same,glycan array binding signal (z-score),[35],-0.416
same,glycan array binding signal (z-score),[36],-0.069
same,glycan array binding signal (z-score),[37],-0.424
same,glycan array binding signal (z-score),[38],-0.175
same,glycan array binding signal (z-score),[39],-0.511
